Assay results from the supplement of paper PMC4604168 (melanoma cell lines).
Some of the results follow. Single values are uncertain, as repeats are few or missing.

Key:
Assay in all cases: cell count relative to DMSO control; melanoma cells; higher = more viable cells
Conditions in all cases: library dose: standard library concentration; 72 h
501Mel = test system: 501Mel
A101D = test system: A101D
A2058 = test system: A2058
A375 = test system: A375
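Further: cells treated in 1,536-well plates, then fixed and DAPI-stained, with nuclei counted from automated high-throughput microscope images.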

Compound	cell count (501Mel) [%]	cell count (A101D) [%]	cell count (A2058) [%]	cell count (A375) [%]
Cn1cc(C2=C(c3cn(C4CCN(Cc5ccccn5)CC4)c4ccccc34)C(=O)NC2=O)c2ccccc21 [Enzastaurin] + Oc1nc(-c2ccc(C(F)(F)F)cc2)nc2c1CSCC2 [XAV939] (first compound 4 µM, partner dose 10 µM)	93.8	67.4	70.5	117
Cn1cc(C2=C(c3cn(C4CCN(Cc5ccccn5)CC4)c4ccccc34)C(=O)NC2=O)c2ccccc21 [Enzastaurin] + CCCCCCCCCCCC1=C(O)C(=O)C=C(O)C1=O [Embelin] (first compound 4 µM, partner dose 6 µM)	90.5	93.7	80	98.3
Cn1cc(C2=C(c3cn(C4CCN(Cc5ccccn5)CC4)c4ccccc34)C(=O)NC2=O)c2ccccc21 [Enzastaurin] + O=S(=O)(c1ccccc1)N(CC(F)(F)F)c1ccc(C(O)(C(F)(F)F)C(F)(F)F)cc1 [T0901317] (first compound 4 µM, partner dose 7 µM)	90.3	46.3	82.9	100
Cn1cc(C2=C(c3cn(C4CCN(Cc5ccccn5)CC4)c4ccccc34)C(=O)NC2=O)c2ccccc21 [Enzastaurin] + CC(C)CCN1c2nc(Nc3cc(F)c(O)c(F)c3)ncc2N(C)C(=O)C1C [BID1870] (first compound 4 µM, partner dose 1 µM)	66.3	67	72.5	107
N.N.[Cl][Pt][Cl] [cisplatin] + c1cc(-c2cnn3cc(-c4ccc(OCCN5CCCCC5)cc4)cnc23)ccn1 [Dorsomorphin] (first compound 8 µM, partner dose 2 µM)	55.5	52.7	84.7	75.8
N.N.[Cl][Pt][Cl] [cisplatin] + O=C(O)C(=O)Nc1sc2c(c1C(=O)O)CCNC2 [TCS401] (first compound 8 µM, partner dose 8.33333 µM)	82.4	77.6	109	94.3
C[As](C)SC[C@H](NC(=O)CC[C@H](N)C(=O)O)C(=O)NCC(=O)O [Darinaparsin] + O=c1cc(-c2cccc3c2Sc2ccccc2S3)oc(N2CCOCC2)c1 [KU55933] (first compound 2 µM, partner dose 5 µM)	79.7	77.2	83.7	81.3
Cn1cc(C2=C(c3cn(C4CCN(Cc5ccccn5)CC4)c4ccccc34)C(=O)NC2=O)c2ccccc21 [Enzastaurin] + COc1ccc2c(c1)CCC1C2CCC2(C)C(NCCCCCCN3C(=O)C=CC3=O)CCC12 [U73122] (first compound 4 µM, partner dose 2 µM)	99.5	76.9	77.4	76.8
C[C@]12O[C@H](C[C@]1(O)CO)n1c3ccccc3c3c4c(c5c6ccccc6n2c5c31)CNC4=O [Lestaurtinib] + c1cc(-c2cnn3cc(-c4ccc(OCCN5CCCCC5)cc4)cnc23)ccn1 [Dorsomorphin] (first compound 0.02 µM, partner dose 2 µM)	50.5	77.8	77.7	93.6
C[As](C)SC[C@H](NC(=O)CC[C@H](N)C(=O)O)C(=O)NCC(=O)O [Darinaparsin] + c1cc(-c2cnn3cc(-c4ccc(OCCN5CCCCC5)cc4)cnc23)ccn1 [Dorsomorphin] (first compound 2 µM, partner dose 2 µM)	45.3	75	76.1	68.4
N.N.[Cl][Pt][Cl] [cisplatin] + COc1ccc(COc2ccc(Cc3cnc(N)nc3N)cc2OC)cc1 [GW2580] (first compound 8 µM, partner dose 5 µM)	81.4	104	105	108
C[As](C)SC[C@H](NC(=O)CC[C@H](N)C(=O)O)C(=O)NCC(=O)O [Darinaparsin] + O=C1NC(=O)/C(=C/c2ccc(-c3ccc(F)cc3O)o2)S1 [AS252424] (first compound 2 µM, partner dose 5 µM)	86.1	114	79.8	130
C[C@]12O[C@H](C[C@]1(O)CO)n1c3ccccc3c3c4c(c5c6ccccc6n2c5c31)CNC4=O [Lestaurtinib] + CCN(CC)CCCCNc1ncc2cc(-c3cc(OC)cc(OC)c3)c(NC(=O)NC(C)(C)C)nc2n1 [PD173074] (first compound 0.02 µM, partner dose 0.5 µM)	59.9	61.4	83.6	88.2
C[As](C)SC[C@H](NC(=O)CC[C@H](N)C(=O)O)C(=O)NCC(=O)O [Darinaparsin] + N#Cc1c(O)c2c(-c3ccc(-c4ccccc4O)cc3)csc2[nH]c1=O [A769662] (first compound 2 µM, partner dose 10 µM)	65.4	80.3	94.9	86.1
C[As](C)SC[C@H](NC(=O)CC[C@H](N)C(=O)O)C(=O)NCC(=O)O [Darinaparsin] + O=C(O)C(=O)Nc1sc2c(c1C(=O)O)CCNC2 [TCS401] (first compound 2 µM, partner dose 8.33333 µM)	80.6	76.2	77.2	121
C[C@]12O[C@H](C[C@]1(O)CO)n1c3ccccc3c3c4c(c5c6ccccc6n2c5c31)CNC4=O [Lestaurtinib] + N#Cc1c(O)c2c(-c3ccc(-c4ccccc4O)cc3)csc2[nH]c1=O [A769662] (first compound 0.02 µM, partner dose 10 µM)	63.9	86.4	114	123
C[C@]12O[C@H](C[C@]1(O)CO)n1c3ccccc3c3c4c(c5c6ccccc6n2c5c31)CNC4=O [Lestaurtinib] + COc1cc(N2CCC(N3CCN(C)CC3)CC2)ccc1Nc1ncc(Cl)c(Nc2ccccc2S(=O)(=O)C(C)C)n1 [NVP-TAE684] (first compound 0.02 µM, partner dose 0.4 µM)	60.4	60.5	69.1	91.4
C[As](C)SC[C@H](NC(=O)CC[C@H](N)C(=O)O)C(=O)NCC(=O)O [Darinaparsin] + O=C(Oc1ccc([N+](=O)[O-])cc1)N1CCC(C(O)(c2ccc3c(c2)OCO3)c2ccc3c(c2)OCO3)CC1 [JZL184] (first compound 2 µM, partner dose 5 µM)	69.5	105	86.7	97.9
Cn1cc(C2=C(c3cn(C4CCN(Cc5ccccn5)CC4)c4ccccc34)C(=O)NC2=O)c2ccccc21 [Enzastaurin] + CCc1ccc(CCOc2ccc(CC3SC(=O)NC3=O)cc2)nc1 [pioglitazone] (first compound 4 µM, partner dose 10 µM)	79.4	62.1	90.2	110
Cn1cc(C2=C(c3cn(C4CCN(Cc5ccccn5)CC4)c4ccccc34)C(=O)NC2=O)c2ccccc21 [Enzastaurin] + Cn1cc(/C=C2\C(=O)Nc3cccnc32)c2ccccc21 [GW441756] (first compound 4 µM, partner dose 2 µM)	76.3	42.9	89.5	117
N.N.[Cl][Pt][Cl] [cisplatin] + Cn1cc(/C=C2\C(=O)Nc3cccnc32)c2ccccc21 [GW441756] (first compound 8 µM, partner dose 2 µM)	65.2	67.2	110	129
C[C@]12O[C@H](C[C@]1(O)CO)n1c3ccccc3c3c4c(c5c6ccccc6n2c5c31)CNC4=O [Lestaurtinib] + CCc1ccc(CCOc2ccc(CC3SC(=O)NC3=O)cc2)nc1 [pioglitazone] (first compound 0.02 µM, partner dose 10 µM)	52.3	71.6	86.4	122
Cn1cc(C2=C(c3cn(C4CCN(Cc5ccccn5)CC4)c4ccccc34)C(=O)NC2=O)c2ccccc21 [Enzastaurin] + COc1cc2ncnc(Nc3ccc(Oc4ccccc4)cc3)c2cc1OC [SrcI1] (first compound 4 µM, partner dose 10 µM)	80.4	43.6	102	65.8
C[C@]12O[C@H](C[C@]1(O)CO)n1c3ccccc3c3c4c(c5c6ccccc6n2c5c31)CNC4=O [Lestaurtinib] + COc1ccc(COc2ccc(Cc3cnc(N)nc3N)cc2OC)cc1 [GW2580] (first compound 0.02 µM, partner dose 5 µM)	67.8	75.1	107	89.9
N.N.[Cl][Pt][Cl] [cisplatin] + Cc1cc([N+](=O)[O-])ccc1NS(=O)(=O)c1cc(Cl)ccc1Cl [FH535] (first compound 8 µM, partner dose 5 µM)	70.2	49	83.1	91.7
N.N.[Cl][Pt][Cl] [cisplatin] + N#Cc1c(O)c2c(-c3ccc(-c4ccccc4O)cc3)csc2[nH]c1=O [A769662] (first compound 8 µM, partner dose 10 µM)	101	77.5	82.2	103
C[C@]12O[C@H](C[C@]1(O)CO)n1c3ccccc3c3c4c(c5c6ccccc6n2c5c31)CNC4=O [Lestaurtinib] + COc1cc2ncnc(Nc3ccc(Oc4ccccc4)cc3)c2cc1OC [SrcI1] (first compound 0.02 µM, partner dose 10 µM)	56	65.7	81.6	150
N.N.[Cl][Pt][Cl] [cisplatin] + Oc1cc(-c2nc(-c3ccccc3)[nH]c2-c2ccncc2)ccc1Cl [L779450] (first compound 8 µM, partner dose 1 µM)	56.1	64.7	88.9	91.3
